Results: publication PMC6919601, “Identification of Plasmodium dipeptidyl aminopeptidase allosteric inhibitors by high throughput screening” (PLoS ONE, 2019)
Several values for one entry are separate records, joined by “and”; a condition that tells them apart may be missing. Equal entries are not always repeated. Out of some 110,000 compounds screened, about 230 (0.21%) showed an effect of 50% or more. This is one part of the list.

Biological target: DPAP1 (Plasmodium falciparum, UniProt Q8IIJ9)
Experiment: primary screen, percent inhibition; read by cleavage of a fluorogenic dipeptide substrate; higher = more effect of the substance
Design: species or system P. falciparum D10 trophozoite lysates; single well
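Note: 30 min substrate incubation versus DMSO and 10 µM JCP410 controls.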

DPAP1, sequence (Q8IIJ9 whole entry, looked up): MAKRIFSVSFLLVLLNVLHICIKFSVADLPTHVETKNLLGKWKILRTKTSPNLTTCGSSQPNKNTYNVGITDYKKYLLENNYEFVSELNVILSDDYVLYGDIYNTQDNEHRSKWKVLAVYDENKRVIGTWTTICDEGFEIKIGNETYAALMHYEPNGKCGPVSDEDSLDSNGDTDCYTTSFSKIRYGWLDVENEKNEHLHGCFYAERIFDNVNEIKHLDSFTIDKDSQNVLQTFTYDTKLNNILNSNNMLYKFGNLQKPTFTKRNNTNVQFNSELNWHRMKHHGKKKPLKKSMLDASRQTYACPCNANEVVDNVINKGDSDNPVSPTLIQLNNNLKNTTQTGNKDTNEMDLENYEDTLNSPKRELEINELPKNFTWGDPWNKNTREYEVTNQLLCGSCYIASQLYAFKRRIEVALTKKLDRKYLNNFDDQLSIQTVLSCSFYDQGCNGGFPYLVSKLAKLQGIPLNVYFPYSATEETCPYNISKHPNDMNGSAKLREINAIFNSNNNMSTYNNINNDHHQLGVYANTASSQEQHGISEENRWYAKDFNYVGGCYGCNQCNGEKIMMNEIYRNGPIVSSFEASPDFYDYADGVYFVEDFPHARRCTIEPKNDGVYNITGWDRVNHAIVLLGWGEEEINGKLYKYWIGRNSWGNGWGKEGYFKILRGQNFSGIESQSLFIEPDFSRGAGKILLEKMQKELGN

SMILES | % Inhibition @ 10 uM
O=C1C(Nc2ccccc2)=C(NS(=O)(=O)c2ccccc2)C(=O)c2ccccc21 | -4.24%
Cc1ccc(OCCCn2c(CO)nc3ccccc32)cc1 | 1.61%
COc1cccc(-c2cc(C(F)(F)F)n3ncc(C(=O)N(C)CCc4ccccn4)c3n2)c1 | -4.62%
COc1ccc(OCC(=O)Nc2ccc(Br)c(Cl)c2)cc1 | -2.99%
CCOC(=O)N1CCN(C2CCN(C)CC2)CC1 | 3.19%
CN1C(=O)c2ccccc2C(C(=O)NCc2ccccc2)C1c1cccs1 (stereo not shown) | 9.29%
Cc1ccccc1CN1CCCCC1CO (stereo not shown) | 1.91%
CNS(=O)(=O)c1cn(CC(=O)N2CCc3ccccc3C2)cc1S(=O)(=O)NC | 1.23%
CCC(Oc1ccc2c(c1)C(=O)CC(C)(C)O2)C(=O)NCCN1CCCCCC1 (stereo not shown) | -1.34%
COCC1=Nc2ncnn2C(c2ccco2)/C1=C(/O)OC (stereo not shown) | 0.627%
Cc1cc2ccccc2c(=O)n1CC(=O)NCCC1=CCCCC1 | 1.91%
O=S(=O)(c1ccc2oc3ccc(S(=O)(=O)N4CCCCC4)cc3c2c1)N1CCCCC1 | -1.47%
N#CC1(NC(=O)[C@H](CC2CCCCC2)N[C@@H](c2cccc(-c3ccncc3)c2)C(F)(F)F)CC1 | 0.079%
O=C(Cn1nc(C(F)(F)F)cc1C1CC1)N1CCc2ccccc21 | 3.72%
COc1ccc(C2CC(c3ccccc3)=Nc3ccccc3S2)cc1OC (stereo not shown) | -5.48%
O=C(CNS(=O)(=O)c1ccc(Cl)cc1)N1CCCCC1 | 10.2%
COc1ccc(CCNC(=O)c2nc3ncccn3n2)cc1OC | 0.0289%
CNC(C)Cc1c2c(cc3c1CCC3)CCC2 (stereo not shown) | -5.79%
CC(=O)Nc1ccc(S(=O)(=O)N2CCN(c3ccc(Cl)cc3)CC2)cc1 | -4.76% and 5.15%
COc1ccc(/N=C2\S/C(=C3\C(=O)Nc4ccccc43)C(=O)N2c2ccc(OC)cc2)cc1 | 2.69%
CN(C)CCCN1C(=O)C(O)=C(C(=O)c2ccc(F)cc2)C1c1ccccn1 (stereo not shown) | 6.71%
O=C(NC12CC3CC(CC(C3)C1)C2)N1CCOCC1 | -2.2%
Cc1cc(NC(=O)CN2C(=O)c3ccccc3S2(=O)=O)ccc1Br | -2.75%
COc1ccc(C)cc1NC(=O)C(C)N(c1ccccc1)S(C)(=O)=O (stereo not shown) | -2.8%
O=C(c1cc(-c2ccc3c(c2)OCO3)on1)N1CCOCC1 | -0.591%

SMILES | % Inhibition @ 10 uM
Nc1nc(NC(=O)c2ccc(F)cc2)nn1-c1ccccc1 | -2.65%
Cc1ccc(S(=O)(=O)NC(C)C(=O)Nc2ccc(Cl)c(C(F)(F)F)c2)cc1 (stereo not shown) | -3.87%
Cc1ccc(-c2csc(N)n2)c(C)c1 | -4.7%
CCOc1ccc(CNC(=O)C(C)n2ccc3cc(S(=O)(=O)N4CCCC4)ccc32)cc1 (stereo not shown) | 4.98%
CCc1cc(=O)oc2c(C)c3c(cc12)CN(Cc1ccc(F)cc1)CO3 | -2.57%
CC1C(C#N)=C(SCCn2c(C(C)(C)C)nc3ccccc3c2=O)N=C2CC(C)(C)CC(O)=C21 (stereo not shown) | 4.16%
Cn1cc(/C=C(\NC(=O)c2ccco2)C(=O)NCCN2CCOCC2)c2ccccc21 | -5.36%
CC1=C(C#N)C(c2cccc(F)c2)C2=C(O)CCCC2=N1 (stereo not shown) | -3.09%
c1csc(Cc2nc(-c3ccc(-n4cccc4)cc3)no2)c1 | 0.0628%
CCN1C(=O)/C(=C/c2ccc(N3CCOCC3)c(F)c2)S/C1=N/c1ccc(N2CCOCC2)cc1 | -2.28%
C=CCN1C(=O)C(CC(=O)Nc2ccc(C)cc2)S/C1=N\c1nccs1 (stereo not shown) | 6.03%
CCc1ccc(CNC(=O)C2c3ccccc3C(=O)N(C)C2c2cn(C)c3ccccc23)cc1 (stereo not shown) | -5.88%
CCC(C)NC(=O)c1ccccc1NC(=O)c1ccc(CN2CCOCC2)cc1 (stereo not shown) | -8.4%
OCCNc1ncnc2ccccc12 | -6.86%
Cc1nn(Cc2ccc(Cl)cc2)c(C)c1NC(=O)c1ccc(F)cc1 | 0.993%
CC(NC(=O)Cn1ncn2cccc2c1=O)c1ccc2c(c1)OCCO2 (stereo not shown) | -0.698%
O=C1N/C(=C/c2ccsc2)C(=O)N1c1ccccc1 | 0.161%
O/C(=C\C=N\c1ccc(O)cc1)c1ccc(Cl)cc1 | 7.69%
COc1cccc(CNCc2cccnc2)c1OCc1ccc(Cl)cc1 | -6.62%
Cc1cccc2c(O)c(NC(=O)NCc3cccnc3)cnc12 | 3.66%
Cc1c2cnn(CC(=O)N3CCCCC3)c(=O)c2c(C)n1Cc1ccccc1F | -5.81%
CCC(C(=O)N1CCCN(C(=O)C(CC)c2ccccc2)CC1)c1ccccc1 (stereo not shown) | -8.61%
Clc1cccc(N2CCN(Cc3ccsc3)CC2)c1 | -2.08%
Cc1cccc(NC(=O)CSc2c3c(nc4ccccc24)CCCC3)n1 | -5.34%
O=[N+]([O-])c1ccc(N2CCN(Cc3ccc(F)c(Br)c3)CC2)cc1 | -3.65%

SMILES | % Inhibition @ 10 uM
C=Cn1ccnc1C(O)(c1ccccc1)c1nccn1C=C | -4.43%
Cc1cc(C=C2C(=O)c3ccccc3C2=O)c(C)n1-c1ccc(N(C)C)cc1 | -2.97%
CCC1CCC(NCCCN2CCOCC2)CC1 (stereo not shown) | -2.21%
COc1cc2ccccc2cc1C(=O)Nc1nc2ccccc2s1 | 10.6%
Cc1cc(C)cc(OC(C)C(=O)N(Cc2ccc(C)o2)C2CCS(=O)(=O)C2)c1 (stereo not shown) | -2.85%
COc1ccc(/C=C(\C#N)c2nc3cccnc3[nH]2)cc1OC | -0.988%
Cc1ccc(C(=O)NCCN2Cc3ccccc3C2=O)cc1 | 2.8%
COc1ccc(C)cc1N(CC(=O)NCC1CCCO1)S(=O)(=O)c1ccc(C)cc1 (stereo not shown) | -1.04%
CCN1C(=O)/C(=C\c2ccncc2)S/C1=N\c1ccc(C)c(C)c1 | -3.77%
COC(=O)NC1c2ccccc2Oc2ccc(C)cc21 (stereo not shown) | 4.74%
CCOC(=O)N1CCN(c2nc3c(=O)n(C)c(=O)n(C)c3[nH]2)CC1 | -5.38%
O=C1N=C(Nc2ccc(Br)cc2)S/C1=C\c1ccc(O)cc1 | 3.17%
c1ccc(CSc2nc3ccncc3[nH]2)cc1 | -4.15%
COc1ccccc1C(=O)NC1(C(F)(F)F)C(=O)Nc2c1c(=O)[nH]c(=O)n2Cc1ccccc1 (stereo not shown) | -1.72%
CC1CCN(CC(=O)c2ccc3cc[nH]c3c2)CC1 | -1.08%
CC(C)CS(=O)(=O)c1cccs1 | -1.59%
O=C(Nc1cnn(Cc2ccc(Cl)cc2Cl)c1)c1noc2c1CCCC2 | -1.21%
CCN(Cc1ccccc1)C(=O)Cn1nc(C)n2c(cc3occc32)c1=O | 2.8%
CCOc1ccc(C2c3c(oc4ccc(F)cc4c3=O)C(=O)N2CCOC)cc1 (stereo not shown) | -1.11%
CC(=O)N1N=C(c2ccccc2)OC12CCCC2 | 3.79%
C1CN(CC2OCC3(CO2)COC(CN2CCOCC2)OC3)CCO1 (stereo not shown) | -3.92%
C#CC(CCCN(CC)CC)(OC)c1ccccc1 (stereo not shown) | 1.24%
CCNc1nc2c(O)nsc2c2c1C(c1cccnc1)C(C#N)=C(N)O2 (stereo not shown) | 1.76%
CS(=O)(=O)C1=NSC2=NC(=O)/C(=C\c3cccn3-c3ccccc3F)C(=N)N21 | 3.53%
CC1=C(C(=O)Nc2ccc(C)cc2)C(c2ccccc2)NC(=O)N1C (stereo not shown) | 2.3%

SMILES | % Inhibition @ 10 uM
CCC(C)NC(=O)c1ccc(Cl)cc1Cl (stereo not shown) | -3.82%
CCOc1ccc(C(=O)N2CCCCC2C)cc1 (stereo not shown) | 5.82%
Cc1nc2nc(N3C(=O)c4ccccc4C3=O)nn2c(O)c1C | 2.05%
CC1NC2(C(=O)N(C/C=C\c3ccccc3)c3ccccc32)C2C(=O)N(c3ccccc3)C(=O)C12 (stereo not shown) | -5.27%
COc1ccc(N(CC(=O)Nc2ccc(Br)cc2)S(C)(=O)=O)cc1OC | -5.13%
COc1ccc2oc(=O)cc(CN3CCN(CCO)CC3)c2c1 | 0.00706%
COc1ccc(-n2c(SCC(N)=O)nnc2-c2ccc(OC)c(OC)c2)cc1 | 0.44%
O=C(Cc1ccccc1)Nc1ccc(-c2nc(O)c3ccccc3n2)cc1 | 3.21%
O=C1C(=Cc2ccc(CCCCc3ccccc3)cc2)C(=O)c2ccccc21 | -0.771%
O=C(Cn1cc(C(=O)c2ccco2)c2ccccc21)NCCc1ccccc1 | -1.33%
CCN1C(=O)/C(=C\c2ccc(C)cc2)N=C1SCC(=O)NCC1CCCCC1 | -0.68%
COc1cc(OC)cc(-c2cc3nc(C)c(CCC(=O)O)c(C)n3n2)c1 | 2.39%
COc1ccc(CN2CCCC(O)C2)cc1OC (stereo not shown) | 0.605%
CCCCCNC(=O)c1c(-c2ccccc2)noc1C | 4.33%
CC(C)CCn1c(=O)c2ccccc2n2c(CCC(=O)NCCCN3CCCC3=O)nnc12 | 3.54%
Cc1c(NC(=O)c2cc3cc(Br)ccc3oc2=O)c(=O)n(-c2ccccc2)n1C | -3.26%
O=C(C1=C(N2CCCCC2)c2ccccc2S(=O)(=O)N1)c1ccccc1 | 2.01%
CCCc1cc(O)n2nc(C)nc2n1 | -2.91%
Cc1ccc(C)c(OCC(=O)N2CCCc3ccccc32)c1 | -3.03%
N#CC1=C(N)Oc2[nH]nc(-c3ccc(F)cc3)c2C1c1ccc(N2CCOCC2)cc1 (stereo not shown) | 2.38%
COc1cc(NC(=O)c2cc(C)on2)cc(OC)c1 | 3.04%
c1nc2sc3c(c2c2nnnn12)CCCC3 | -2.03%
CCOC(=O)N1CCN(C2CCC(C)CC2)CC1 (stereo not shown) | -1.81%
Cn1c(=O)c2c(O)c(Sc3ccc(Cl)cc3)c(=O)n(C)c2n(C)c1=O | -2.24%
Sc1ncnc2c1[nH]c1ccccc12 | 4.7%
